Test results as given in PubChem BioAssay AID504832 (National Center for Advancing Translational Sciences (NCATS), 2011).
In all, about 310,000 compounds went through this assay and about 18,000 (5.8%) were called active. The shares of active, inactive and inconclusive entries below differ from those in the screen. The call rests on the fitted dose curve; in most records, active means well fitted inhibition curve with a large enough effect; inconclusive means small, poorly fitted or top-dose-only effect, or another doubt; inactive means no such curve, though single readings can be large or run the other way. Potencies of inconclusive entries are left out as doubtful fits.
On the % scale 0 is the no-effect control and ±100 the full control effect; potency means the concentration at half of the fitted maximal effect; tags describe the fitted curve by direction and shape.

Assay: Primary qHTS for delayed death inhibitors of the malarial parasite plastid, 48 hour incubation
Details: P. falciparum luciferase growth in erythrocytes; series mostly up to 28.7 µM; activity change, negative = inhibition: at the top concentration
Summary of the method: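 Compounds are pin-transferred into medium, infected erythrocytes (2% hematocrit, 0.1% parasitemia final) are added, and plates sit one parasite generation at 37 C in 5% CO2. Detection reagent is then added and luminescence measured.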
For `Cc1cc(=O)oc(C)c1C(=O)N1CCCCC1`, the Potency was inconclusive [inhibitor, single point].
With `Cn1c(CCN2CCOCC2)nc2cc(NC(=O)COc3ccc(Cl)cc3)ccc21` the Potency was inconclusive [inhibitor, single point].
For `COc1ccc(-c2cc3ccc(O)cc3oc2=O)cc1`, the “activity change, negative = inhibition” value was inactive: 152%.
In the case of `CCOC(=O)CNC(=O)CSc1nc2cccnc2n1C`, the Potency is reported as inconclusive [inhibitor, full curve, poor fit].
For `CCCCC(=O)Nc1sc2c(c1-c1nc3ccccc3s1)CCN(C(C)=O)C2`, the Potency was inconclusive [inhibitor, single point].
In the case of `CCN(CC(=O)Nc1cc(S(=O)(=O)N2CCCCC2)ccc1Cl)Cc1ccccc1`, the Potency is reported as active: 10.4 µM.
With `Cc1cc(C)nc(SC(C)CNS(=O)(=O)c2ccccc2)n1` (configuration not stated) the Potency was inconclusive [inhibitor, full curve, poor fit].
For `O=C(Nc1ccc(N2CCN(C(=O)c3ccco3)CC2)cc1)c1ccc2c(c1)OCO2`, the Potency was active: 13.1 µM.
With `OCC1(CCc2ccccc2)CCN(Cc2ccccc2Cl)CC1` the Potency was inconclusive [inhibitor, single point].
For `Cc1cccn2c(CN(C)C3CCCc4ccccc43)c(C(=O)N3CCOCC3)nc12` (configuration not stated), the Potency was inconclusive [inhibitor, partial curve, poor fit].
With `CCOc1cc2[nH]c(=S)n(Cc3ccc(C(=O)NCCCOC)cc3)c(=O)c2cc1OCC` the Potency was inconclusive [inhibitor, single point].
For `COc1ccc(NC(=O)COc2cccc3c2CCN(C)C3=O)c(OC)c1`, the Potency was inconclusive [inhibitor, partial curve].
In the case of `O=C(O)c1ccc(-c2nc(-c3ccc(Cl)cc3Cl)cs2)cc1`, the “activity change, negative = inhibition” value is reported as inactive: 244%.
In the case of `O=C(CC(c1ccccc1)c1cc(Cl)ccc1O)NCCCN1CCOCC1` (configuration not stated), the Potency is reported as inconclusive [inhibitor, single point].
With `O=C(CCCN1C(=O)S/C(=C\C=C\c2ccccc2)C1=O)Nc1ccc(O)cc1` the Potency was inconclusive [inhibitor, partial curve, poor fit].
In the case of `CCOc1ccc(N2C(=O)CC(SCc3nc4ccccc4[nH]3)C2=O)cc1` (configuration not stated), the Potency is reported as inconclusive [inhibitor, full curve, poor fit].
In the case of `CN(Cc1nc2ccccc2n1C)S(=O)(=O)c1ccc(F)cc1`, the “activity change, negative = inhibition” value is reported as inactive: 23.4%.
For `COCC(=O)N(Cc1cc2cc(C)ccc2[nH]c1=O)c1ccc(C)c(C)c1`, the “activity change, negative = inhibition” value was inactive: -8.38%.
In the case of `COc1cc2c(cc1NC(=O)COC(=O)c1ccccc1)oc1ccccc12`, the “activity change, negative = inhibition” value is reported as inactive: 4.46%.
With `COc1ccc(/C=C/C(=O)c2ccccc2)cc1COc1ccc(F)cc1` the Potency was inconclusive [inhibitor, partial curve, poor fit].
With `CCS(=O)(=O)n1nc(-c2ccco2)nc1N` the “activity change, negative = inhibition” value was inactive: 12.1%.
In the case of `COC(=O)N1c2ccccc2CCc2ccccc21`, the Potency is reported as active: 7.38 µM.
For `C=CCOc1ccc(C2c3c(oc4ccccc4c3=O)C(=O)N2CCCN2CCOCC2)cc1` (configuration not stated), the Potency was inconclusive [inhibitor, single point].
With `O=C(Nc1ccc(S(=O)(=O)NC2=NCCCCC2)cc1)c1ccco1` the Potency was inconclusive [inhibitor, full curve, poor fit].
With `Cc1cccc2cc(COC(=O)c3cccs3)c(=O)[nH]c12` the “activity change, negative = inhibition” value was inactive: 22.1%.
With `CCN(CC)c1ccc(N2C(=O)/C(=C\c3cccnc3)SC2=S)cc1` the Potency was inconclusive [inhibitor, single point].
With `Oc1ccc(Cl)cc1Cc1cc(Cl)ccc1O` the Potency was inconclusive [inhibitor, single point].
For `O=C(NNc1c(F)c(F)cc(F)c1F)c1cc2ccccc2oc1=O`, the “activity change, negative = inhibition” value was inactive: 8.93%.
With `COc1cc(C(=O)NCC(=O)OCc2cc(=O)oc3c(C)c(C)ccc23)cc(OC)c1OC` the “activity change, negative = inhibition” value was inactive: -8.36%.
With `COc1cc(NC(=O)c2cccc(F)c2)cc(OC)c1OC` the “activity change, negative = inhibition” value was inactive: 23.6%.
With `O=C(Nc1ccc(Br)cc1)C1CCC(=O)N1Cc1ccccc1Cl` (configuration not stated) the Potency was inconclusive [inhibitor, single point].
In the case of `C#CCOCCOCCOCCNc1nc(N2CCN(C(=O)[C@H]([C@@H](C)CC)n3cc([C@@H](N)CO)nn3)CC2)nc(N2CCN(C(=O)[C@H](Cc3cc4ccccc4[nH]3)n3cc([C@@H](N)C(C)CC)nn3)CC2)n1` (some centres not stated), the Potency is reported as inconclusive [inhibitor, partial curve].
With `CCc1ccc(S(=O)(=O)O)cc1` the “activity change, negative = inhibition” value was inactive: -12.7%.
With `C#CC[N+](C)(C)CC#Cc1ccccc1` the Potency was active: 1.65 µM.
In the case of `N#Cc1nc(COc2ccc(F)cc2)oc1N1CCCCC1`, the “activity change, negative = inhibition” value is reported as inactive: -22.7%.
In the case of `CCOc1ccc(-n2c(CC)nc3ccccc3c2=O)cc1`, the “activity change, negative = inhibition” value is reported as inactive: 2.79%.
For `O=C(CNC1CCN(Cc2ccccc2)CC1)Nc1ccc(S(=O)(=O)N2CCCCC2)cc1`, the Potency was inconclusive [inhibitor, partial curve].
With `CCOc1ccccc1-c1nc(CN2CCCN(C(=O)c3ccco3)CC2)c(C)o1` the Potency was inconclusive [inhibitor, single point].
In the case of `COC(=O)[C@@]12CCCCN1[C@H](c1ccc(-c3ccc(OC)cc3)cc1)[C@H]1C(=O)N(C)C(=O)[C@H]12`, the Potency is reported as inconclusive [inhibitor, partial curve, poor fit].
For `Cc1ccc(CN2CCC(c3nc4ccc(Cl)cc4[nH]3)CC2)cc1`, the Potency was active: 8.28 µM.
In the case of `O=C(Nc1c(Cl)cc(Cl)cc1C(=O)NCc1cccnc1)c1ccc(Cl)cc1Cl`, the Potency is reported as active: 1.47 µM.
In the case of `COC(=O)c1sc(C(=O)OC)c(C(=O)OC)c1C(=O)OC`, the “activity change, negative = inhibition” value is reported as inactive: -1.76%.
In the case of `COc1ccc(CCC(=O)NCCc2ccc(OC)c(OC)c2)cc1`, the “activity change, negative = inhibition” value is reported as inactive: 9.59%.
For `O=C(Cc1cccs1)NCCCc1ccccc1`, the Potency was inconclusive [inhibitor, partial curve, poor fit].
With `C/C(=N\NC(=O)c1[nH]c2c([N+](=O)[O-])cc(C)cc2c1-c1ccccc1)c1cccnc1` the Potency was inconclusive [inhibitor, partial curve].
For `COc1ccc(/C=N/NC(=O)c2cnccn2)cc1O`, the “activity change, negative = inhibition” value was inactive: 90.1%.
With `COc1cc(/C=N/N=C(N)N)ccc1OCc1ccccc1Cl` the Potency was active: 2.62 µM.
For `Cc1cc2[nH]c3ccccc3c2cn1`, the Potency was inconclusive [inhibitor, single point].
In the case of `COCCCN1CC(=O)N2C(c3cccc(C)c3)c3[nH]c4ccccc4c3C[C@H]2C1=O` (some centres not stated), the Potency is reported as active: 9.28 µM.
With `Cc1ccc(Oc2nc(CN3CCOCC3)nc3sc4c(c23)CCC(C)C4)cc1` (configuration not stated) the Potency was inconclusive [inhibitor, single point].
For `O=C(Nc1ccc(Br)cc1Cl)NC1CC1`, the “activity change, negative = inhibition” value was inactive: 43%.
For `Cc1ccccc1C(=O)Nc1cccc(-c2ccc3nncn3n2)c1`, the Potency was inconclusive [inhibitor, partial curve, poor fit].
For `CCOP(=S)(OCC)c1ccc(N(C)C)cc1`, the Potency was inconclusive [inhibitor, partial curve, poor fit].
For `CCOc1ccc2[nH]c(=O)c(C(c3nnnn3Cc3ccco3)N3CCN(C)CC3)cc2c1` (configuration not stated), the Potency was inconclusive [inhibitor, full curve].
With `OCCN1CCN(C(c2cccs2)c2ccc3cccnc3c2O)CC1` (configuration not stated) the Potency was active: 2.08 µM.
With `O=C(COc1ccc(F)cc1)N(c1ccccn1)C1CCCCC1` the “activity change, negative = inhibition” value was inactive: -4.78%.
With `O=C1CN(C(=O)c2cc([N+](=O)[O-])ccc2Cl)C(c2ccc(F)cc2)c2cc(F)ccc2N1` (configuration not stated) the Potency was inconclusive [inhibitor, single point].
For `Cc1ccc(-c2nc(NC(=O)CSc3cc(C)c4ccccc4n3)ns2)cc1`, the “activity change, negative = inhibition” value was inactive: 29.7%.
In the case of `CCOP(=O)(OCC)/C(C#N)=C/c1c[nH]c2ccccc12`, the Potency is reported as inconclusive [inhibitor, full curve, poor fit].
In the case of `CCC(=NCC1CCCO1)c1c(O)n(-c2ccccc2C)c(=O)[nH]c1=O` (configuration not stated), the Potency is reported as inconclusive [inhibitor, partial curve, poor fit].
For `CCCCN(C)C(=O)c1cc2cc([N+](=O)[O-])cc(OC)c2oc1=O`, the “activity change, negative = inhibition” value was inactive: 9.51%.
With `Cc1cc(=O)oc2cc(OCC(=O)OC(C)C(=O)NC3CCCC3)ccc12` (configuration not stated) the Potency was inconclusive [inhibitor, partial curve, poor fit].
In the case of `CCCNC(=O)c1c[nH]c2ccc(S(=O)(=O)N(C)c3ccc(OCC)cc3)cc2c1=O`, the Potency is reported as active: 11.7 µM.
For `Cc1[nH]nc2c1C(c1ccc(-c3ccc(Cl)cc3)o1)C(C#N)=C(N)O2` (configuration not stated), the “activity change, negative = inhibition” value was inactive: 4.93%.
For `O=C(O)c1cc(=O)c2ccccc2o1`, the Potency was inconclusive [inhibitor, single point].
With `CCOc1ccc(-c2cc(CCCC(=O)Nc3cc(OC)ccc3OC)no2)cc1` the Potency was inconclusive [inhibitor, partial curve, poor fit].
With `COc1cccc(C(=O)NCC(c2cccs2)N2CCc3ccccc32)c1` (configuration not stated) the Potency was inconclusive [inhibitor, partial curve].
With `Cc1ccc(S(=O)(=O)NC(CC(=O)N2CCC3(CC2)OCCO3)c2ccco2)cc1` (configuration not stated) the Potency was inconclusive [inhibitor, single point].
With `O=C(Nc1ccc2c(c1)OCO2)c1cccs1` the “activity change, negative = inhibition” value was inactive: 53.1%.
In the case of `Cc1ccc(-c2nn3c(C)nnc3c3ccccc23)cc1S(=O)(=O)NCCN1CCOCC1`, the Potency is reported as inconclusive [inhibitor, partial curve, poor fit].
With `Cc1ccc(C)c(C(=O)CCC(=O)N2CCN(c3ncccn3)CC2)c1` the Potency was inconclusive [inhibitor, single point].
With `COc1ccc([C@@H](OC)[C@@]2(Cc3ccc(O)cc3)N=C(N)N(C)C2=O)cc1` the Potency was inconclusive [inhibitor, single point].
